# PubChem BioAssay (NCI)
#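 These data come from cells grown in 96-well plates and exposed to compound for 48 hours at five concentrations. Here, GI50 denotes the concentration required for 50% inhibition of growth. TGI marks complete inhibition of growth.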 Numbered stars: 1 amine (or outer) side, 2 acyl side, 3 side chain; on linkers, the order of the positions; unused ones are H or OH. Bridge positions count the residues as written; N and C are the ends. Square brackets hold non-standard residues; d marks the D form. Peptide text beside a SMILES is read from it. * marks the point of attachment. Phe(3-Me) = Cc1cccc(C[C@H](N)C(=O)O)c1; NH(4-Cl-2-F-phenyl) = Fc1cc(Cl)ccc1N*; Pro(4R-Me) = C[C@H]1CN[C@H](C(=O)O)C1; Propanoyl(3-NMe2) = CN(C)CCC(=O)*; Hyp = O=C(O)[C@@H]1C[C@@H](O)CN1; aThr = C[C@H](O)[C@H](N)C(=O)O; Pip = O=C(O)[C@@H]1CCCCN1; CO = O=C([*:1])[*:2]
# System: NCI-H322M lung
# Assay: NCI tumour cell line growth inhibition, 48 h
SMILES,TGI,GI50
CC1=CC2C(C(C)C)CC1C1C(=O)OC(=O)C21 (stereo unspecified),> 100 µM,
CCNCCCCNCC,> 3750 µM,
C=C1C(=O)OC2/C=C(\C)C3OC3/C=C(/C(=O)OC)C(OC(C)=O)C(OC(=O)C(C)(O)C(C)OC(C)=O)C12 (stereo unspecified),20.7 µM,
O=C1c2cccnc2C(=O)c2c1c(C(=O)OCCN1CCOCC1)c1ccccn21,1.43 µM,0.0476 µM
CC1(C)O[C@@H]2[C@@H]3OC(=O)C[C@@H]3[C@@H](COCc3ccccc3)[C@@H]2O1,> 100 µM,
N/N=C(\C(=O)Nc1ccc([N+](=O)[O-])cc1)C(C1=Nc2cc([N+](=O)[O-])ccc2NC1)[N+](=O)[O-] (stereo unspecified),> 100 µM,
c1ccc(C2N3CCCCC3[C@@H]3c4[nH]c5ccccc5c4CCN23)cc1 (stereo partly specified),> 100 µM,
CCc1ccc(Nc2cc(C)nc3nc(C)nn23)cc1,> 100 µM,> 100 µM
CN1CCCN(C(c2ccccc2)c2ccc(Br)cc2)CC1 (stereo unspecified),22 µM,3.67 µM
CCCCCCCCCC(CCCC(O)CC(=O)O)OC1OC(COC2OC(C)C(O)C(O)C2O)C(O)C(O)C1OC1OC(CO)C(O)C(O)C1OC1OC(C)C(O)C(O)C1O (stereo unspecified),> 40 µM,> 40 µM
CC(=O)OCC1OC(n2c(-c3ccccc3)c(C)c(C)c(C#N)c2=S)C(OC(C)=O)C(OC(C)=O)C1OC(C)=O (stereo unspecified),> 100 µM,
Cc1n[nH]c(=O)n1N1C(=O)c2ccccc2C1=O,> 100 µM,
CC(=O)O[C@H]1[C@@H](N2CCN(C)CC2)C[C@H]2[C@@H]3CC=C4C[C@@H](N5CCCC5)CC[C@]4(C)[C@H]3CC[C@@]21C,> 100 µM,
N=c1oc2c(Cl)cc(Cl)cc2cc1C(=O)Nc1ccccn1,> 100 µM,
Cn1cnc([N+](=O)[O-])c1Sc1nc(N)nc2c1ncn2Cc1ccccc1,62.9 µM,
Nc1nc2c(c3cnccc13)C(c1cccc(Cl)c1)Cc1cnccc1-2 (stereo unspecified),18.5 µM,0.609 µM
O=C1OC2C(O)C(=O)OC2C1O (stereo unspecified),> 100 µM,
O=c1[nH]c(=O)n(C2CC(O)C(CO)O2)cc1C#Cc1cc(F)cc(F)c1 (stereo unspecified),> 100 µM,
Nc1c(C(=O)Nc2ccccc2)sc2nc3c(cc12)CCCC3,> 100 µM,8.97 µM
COc1ccc(-c2coc3cc(OC)cc(O)c3c2=O)cc1,> 100 µM,
C/C(=N/N)c1ccc2[nH]c3c(C)cc([N+](=O)[O-])c(C)c3c2c1,28.9 µM,
C/C(=N\NC(=O)c1ccncc1)c1ccc(O)cc1O,45.7 µM,1.4 µM
O=[N+]([O-])c1ccc(-c2cn(-c3ccc(Cl)cc3)cn2)cc1,> 100 µM,

SMILES,TGI,GI50
COc1ccc(CC2C3=C(CCCC3)CCN2C)cc1 (stereo unspecified),> 100 µM,
CC1(C)OC(=O)C(=C2CC(c3ccccc3)c3ccccc32)C(=O)O1 (stereo unspecified),> 100 µM,
Cc1cccc(C[C@H](NC(=O)Nc2ccc(Cl)cc2F)C(=O)N[C@@H]2C(=O)N3C[C@H](OC(=O)CCN(C)C)C[C@H]3C(=O)N3CCCC[C@H]3C(=O)N[C@@H](C)C(=O)N3C[C@H](C)C[C@H]3C(=O)O[C@H]2C)c1 ({NH(4-Cl-2-F-phenyl)-CO}-[Phe(3-Me)][aThr][Hyp](Propanoyl(3-NMe2))[Pip]A[Pro(4R-Me)]; ester 2-C),5.42 µM,0.958 µM
Nc1ccc(N)c2c1C(=O)c1c(N)ccc(N)c1C2=O,> 100 µM,
CCN(CC)CCOc1ccc(C(=C2CCCCC2)c2ccc(OCCN(CC)CC)cc2)cc1,2.94 µM,
CC(=O)Nc1ccc(-c2nc3ccccc3s2)cc1O,> 100 µM,
O=S(=O)(NCCCNc1cc(-c2cn(-c3ccccc3)nc2-c2cccc(O)c2)ccn1)c1ccc(Cl)cc1,20.1 µM,2.9 µM
O=CC1(C2(C=O)c3ccccc3-c3ccccc32)c2ccccc2-c2ccccc21,7.92 µM,3.52 µM
O=C(O)c1cc(Sc2ccc([N+](=O)[O-])c(C(=O)O)c2)ccc1[N+](=O)[O-],> 100 µM,
CC1=C(C(=O)Nc2ccccc2C)C(c2ccc(C3C(C(=O)Nc4ccccc4C)=CNC=C3C(=O)Nc3ccccc3C)cc2)C(C(=O)Nc2ccccc2C)=C(C)N1,32.2 µM,
CC1(C)C2CCC1(CC(=O)O)C(Cl)C2 (stereo unspecified),> 100 µM,
O=C(c1ccc2c3c(ccc(C(=O)C(F)(F)F)c13)CC2)C(F)(F)F,> 100 µM,
COc1cc(C=O)c(-c2cc3c(cc2C=O)OCO3)c(OC)c1OC,> 290 µM,
CCn1cnc2c(NC(C)=O)ncnc21,> 100 µM,
CC1=C(C)C(=O)OC([C@](C)(O)[C@]2(O)CC[C@@]3(O)[C@@H]4C[C@H]5O[C@]56CC=CC(=O)[C@]6(C)[C@H]4CC[C@]23COC(=O)c2ccc(C)o2)C1 (stereo partly specified),> 21.3 µM,
CN(C)/C=N/c1nc2ncn(CCOC(=O)c3ccccc3)c2c(=O)[nH]1,> 100 µM,
COc1c(O)cc(C(=O)O[C@@H]2Cc3c(O)cc(O)cc3O[C@@H]2c2cc(O)c(O)c(O)c2)cc1O,59.8 µM,
CCOP(C)(=O)C(Nc1ccc(F)cc1)c1ccc(F)cc1 (stereo unspecified),> 100 µM,
C=C1N(C)c2ccc(Cl)cc2C1(C)C,> 100 µM,22.5 µM
CCC/C(=N\NC(=O)c1cc2ccccc2cc1O)C(CC)C(=O)CCC(=O)N(Cc1ccccc1)Cc1ccccc1 (stereo unspecified),> 100 µM,
CC1(C)CC[C@]2(C(=O)O)CC[C@]3(C)C(=CC[C@@H]4[C@@]5(C)CC[C@H](OC6OC(CO)C(O)C(O)C6OC6OC(CO)C(O)C(O)C6O)C(C)(C)[C@@H]5CC[C@]43C)[C@@H]2C1 (stereo partly specified),28 µM,
CCOC(=O)/C=C/c1ccccn1,> 100 µM,
